Reference: PubChem BioAssay (Tox21)
The inconclusive results got no clear call from the source; some entries with a clear call stand among them for comparison. Where the call is inconclusive, the potency comes from a doubtful curve fit. The source made the active and inactive calls. The call rests on the fitted dose curve; in most records, active means well fitted cell-killing curve with a large enough effect in the repeat runs; inconclusive means weak or mixed curves, or effect the other way; inactive means flat fitted curve, though single readings scatter.

Experiments:
[1] = qHTS assay to identify small molecule agonists of the constitutive androstane receptor (CAR) signaling pathway - cell viability counter screen (AID 1224836); settings: HepG2-CYP2B6-hCAR viability, CellTiter-Fluor, 23 h, PK11195 added to every well; series mostly up to 92.4 µM
How it was run: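 Cells were seeded and incubated 4 hrs. Compounds were added across 15 concentrations together with PK11195 at 0.75 uM final. Plates were incubated 23 hrs at 37 C. CellTiter-Fluor was added and fluorescence measured.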

[2] = qHTS assay to identify small molecule antagonists of the constitutive androstane receptor (CAR) signaling pathway - cell viability counter screen (AID 1224837); settings: HepG2-CYP2B6-hCAR viability, CellTiter-Fluor, 23 h, co-treated with 50 nM CITCO; series mostly up to 92.4 µM
How it was run: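 Counter screen run in HepG2-CYP2B6-hCAR cells: 4 hr settle, compound titration (15 concentrations) with 50 nM CITCO, 23 hr at 37 C/5% CO2, CellTiter-Fluor fluorescence.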
Further: nearly all actives have a fitted effect of over 45% in size.
Potency means the concentration at half of the fitted maximal effect; tags describe the fitted curve by direction and shape.

CSC1=N[C@@](C)(c2ccccc2)C(=O)N1Nc1ccccc1
Potency [1]: inconclusive: 24.3 µM [cytotoxic, partial curve]

CCCCN(CCCC)C(=S)[S-].CCCCN(CCCC)C(=S)[S-].[Zn+2]
Potency [1]: active: 21.7 µM | Potency [2]: active: 21.7 µM

CO/N=C(/C(=O)OC)c1ccccc1COc1ccccc1C
Potency [1]: inconclusive: 12.2 µM [cytotoxic, full curve]

Cc1cc(C)c(C(=O)P(=O)(c2ccccc2)c2ccccc2)c(C)c1
Potency [1]: inconclusive: 68.6 µM [cytotoxic, single point] | Potency [2]: inconclusive: 68.6 µM [cytotoxic, single point]

N#Cc1cc([N+](=O)[O-])ccc1N
Potency [1]: inconclusive: 19.3 µM [cytotoxic, partial curve] | Potency [2]: inconclusive: 27.3 µM [cytotoxic, single point]

CC(C)c1c(CN(C)C(C)Cc2ccccc2)n(C)n(-c2ccccc2)c1=O (configuration not stated)
Potency [1]: inconclusive: 13.3 µM [rising, single point]

CCOC(=S)S
Potency [1]: inconclusive: 51.7 µM [cytotoxic, partial curve, poor fit] | Potency [2]: inconclusive: 30.6 µM [cytotoxic, partial curve]

Cc1cc(C(C)(C)c2ccc(O)c(C)c2)ccc1O
Potency [1]: inconclusive: 58.2 µM [cytotoxic] | Potency [2]: inconclusive: 51.9 µM [cytotoxic, partial curve]

CC(C)(C)c1ccc(CSc2cnn(C(C)(C)C)c(=O)c2Cl)cc1
Potency [1]: inconclusive: 0.0273 µM [cytotoxic, full curve] | Potency [2]: inconclusive: 0.109 µM [cytotoxic, full curve]

CCN(CC)C(=O)[C@@H]1C=C2c3cccc4[nH]cc(c34)C[C@H]2N(C)C1
Potency [1]: inconclusive: 160 µM [cytotoxic, single point] | Potency [2]: inconclusive: 89.8 µM [cytotoxic, partial curve]

c1coc(-c2nc3ccccc3[nH]2)c1
Potency [1]: inactive

CC(C)N1C(=O)c2ccccc2NS1(=O)=O
Potency [1]: inactive

O=S(=O)(C(Cl)(Cl)Cl)C(Cl)(Cl)Cl
Potency [1]: active: 54.5 µM | Potency [2]: active: 30.6 µM

COc1ccc2c3c1O[C@H]1[C@@H](O)C=C[C@H]4[C@@H](C2)N(C)CC[C@@]341
Potency [1]: inconclusive: 60.1 µM [cytotoxic, single point]
